Results taken from the supplement of paper PMC11417369.
Some of the results follow.

tested on: PfAP2-HC AP2 domain (GST-tagged); test: gcPBM binding intensity (ln(normalized median fluorescence intensity)); higher = stronger DNA binding
How it was run: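 Binding intensity is defined as the maximum Masliner-normalised natural-log median intensity across replicate spots for either probe orientation. It was measured on an Agilent 4 × 180k array of primer-extended double-stranded 36-bp intergenic genomic probes and negative controls, to which GST-tagged P. falciparum DNA-binding domains made in E. coli were applied for 1 h in 1× PBS with 1% milk, 0.2 mg/ml BSA, 0.5% salmon testes DNA and 0.03% Triton X-100. Detection was by Alexa488 anti-GST antibody and scanning at 488 nm.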

Going from “TGTGTATAAAAAAAGTGTACACAAAGTAAGACTTTA [XGTACX_site3759]” to “TACCAAAAAACGGCACGCATATGTATAAGAATATGT [XGTACX_negctrl_site470]”, the “gcPBM binding intensity (ln)” value falls from 9.82 to 9.68.

Going from “TTAATTAAGAAACACACACACATATATATATATATT [CACACA_site2290]” to “TGAATAAAGAAACACACACACATATATATATATGTA [CACACA_site17]”, the “gcPBM binding intensity (ln)” value falls from 10.5 to 10.3.

Going from “TATTAATAATTTTCATGTACATATGTATTTGTAATA [XGTACX_site858]” to “ATATAATAAATGTCATGTACATACAACATTTTAACT [XGTACX_site7517]”, the “gcPBM binding intensity (ln)” value rises from 9.53 to 9.59.

Compared with “TTTTTAATTTACTGTCATAGGTACCTTAACTTATCA [CACACA_negctrl_site1664]”, “TACTTATGTTCGCACACATGCAAATTAAAAAAAAAA [TGCATGCA_site1023]” is higher in “gcPBM binding intensity (ln)” value: 9.67 for the first, 9.84 for the second.

Going from “TACATATACATATTGTGTACATAATAATTATTTATA [XGTACX_site7884]” to “ATTTTTTTACTGGATCCATATTTGCTTTTTTATTTA [CACACA_negctrl_site1108]”, the “gcPBM binding intensity (ln)” value rises from 9.76 to 9.84.

Going from “GTGGATATATGTATATGTACATATGTATGTATATAT [XGTACX_site2412]” to “TCTCTTTTTCGTTCATGTACAAATAAATAAAAATAT [XGTACX_site6558]”, the “gcPBM binding intensity (ln)” value falls from 9.88 to 9.4.

First: TTATATATATGACTTTGTACATATACATATTTTTTA [XGTACX_site4669]
Second: GTATATTTTATTTTATGTACATATTCATTTTTTATT [XGTACX_site561]
The “gcPBM binding intensity (ln)” value of the first is lower: 9.68 for the first, 10.2 for the second.

Compared with “TATTATATATATGCACGTACAAAAATAATAAAGGTA [XGTACX_site3506]”, “CATGAATCCTAATAATGTACATAAGAATTCATAATG [XGTACX_site1607]” is lower in “gcPBM binding intensity (ln)” value: 9.74 for the first, 9.45 for the second.

Compared with “TACATATATATATATGAACACACAAAAAGAATATTT [CACACA_site8421]”, “ATAAGCATACATATTACACACATATAATATATATAT [CACACA_site2487]” is higher in “gcPBM binding intensity (ln)” value: 9.84 for the first, 9.85 for the second.

Going from “TCTTACTAATTTATGGGGACTTATCACCTATTCAGT [CACACA_negctrl_site652]” to “AGTGGATAAATTTATTCACACATTTTTTTTTTTTTT [CACACA_site5914]”, the “gcPBM binding intensity (ln)” value falls from 9.55 to 9.49.

First: TTTTATGAGAAACACACACACAAAAAAAAAAAAAAA [CACACA_site4129]
Second: TATATTATTTATAGTAGTACATAAAATATAAATATT [XGTACX_site4417]
The “gcPBM binding intensity (ln)” value of the first is higher: 9.8 for the first, 9.48 for the second.

First: AAAAAAAAAAAAAAAACACACATACACATATATTTT [CACACA_site7768]
Second: TATTGTATTTCATATTGTACTAAAAAAAAAAAAAAG [XGTACX_site6694]
The “gcPBM binding intensity (ln)” value of the first is higher: 9.99 for the first, 9.42 for the second.

First: ATAATACATACATACATACACACATATATATATATT [CACACA_site3576]
Second: TAAAAAAAAAAAAAAACACACATATAAATATTTATA [CACACA_site6702]
The “gcPBM binding intensity (ln)” value of the first is higher: 10 for the first, 9.61 for the second.

First: TCAATAATAAAAAACACACACAAAAAAAAATAATTA [CACACA_site2798]
Second: AACAAAGTCATACATACATACATATATATATATATA [GTGCAC_negctrl_site632]
The “gcPBM binding intensity (ln)” value of the first is higher: 10.2 for the first, 9.57 for the second.

First: AAATTAAAATAAAATAGTACATATATTTATATTTTT [XGTACX_site1687]
Second: TATTATTTTTCATATGCATGCAAAAATAAAAAAATA [TGCATGCA_site350]
The “gcPBM binding intensity (ln)” value of the first is higher: 9.55 for the first, 9.31 for the second.

First: TATAAAAAAAAAAAAAAAAAAAAAAATATATATATA [CACACA_negctrl_site817]
Second: ATGAAAAAAAAAAAAAAAAAAAAAAAAAAAAAAATA [CACACA_negctrl_site1083]
The “gcPBM binding intensity (ln)” value of the first is higher: 9.34 for the first, 9.29 for the second.

Going from “ATTTTTTTGTATATATATGACTGGGGATATAATCAA [GTGCAC_negctrl_site274]” to “AAAAAAAAAAAAAATTGTACTTAAATATATATATAT [XGTACX_site7604]”, the “gcPBM binding intensity (ln)” value falls from 9.61 to 9.29.

Compared with “TTAGCTTATCATTACTGTACTTTATTCATATATATG [XGTACX_site8008]”, “TAAACATTCTTATATAGTACCCATATTAAAATATAC [XGTACX_site8014]” is lower in “gcPBM binding intensity (ln)” value: 9.75 for the first, 9.42 for the second.

Compared with “ATTTTTTTTTCTTGTACACACTATTTTATAATTTTA [CACACA_site6102]”, “ACATACATATATTTATGTACATATATATTTATGATT [XGTACX_site6485]” is lower in “gcPBM binding intensity (ln)” value: 10.1 for the first, 9.67 for the second.

First: TTTTGGTGTATAGTATTAATATAAAATAATTATATT [CACACA_negctrl_site47]
Second: AATTTATATTTATGTGCATGTAATAACTGTATATAA [TGCATGCA_site349]
The “gcPBM binding intensity (ln)” value of the first is higher: 9.58 for the first, 9.52 for the second.

Going from “TCTAATAATAAATACACACACATATATATTTATATA [CACACA_site5169]” to “TTTTTTTTTGAAAAAAGTACTTAATTTTTAAGAAGA [XGTACX_site3591]”, the “gcPBM binding intensity (ln)” value falls from 10.1 to 8.94.

Compared with AAGGAATGCATATAGGTGCTACACATAAAAATAAAA, “TTAAGTAGTACATACACACACATATACAAAAAGAAA [CACACA_site3972]” is higher in “gcPBM binding intensity (ln)” value: 9.85 for the first, 10.7 for the second.

Going from “TACTTTTTTCCTATTATGTTTCTTATTTTTATAAAT [XGTACX_negctrl_site561]” to “GTCAACAAGAATTAAGTGCATAATTTTTTATTAAAT [GTGCAC_site9492]”, the “gcPBM binding intensity (ln)” value falls from 9.78 to 9.45.

Compared with “ATGTCAAGAACTGAACGTACAAACTTTGTAATATTG [XGTACX_site8754]”, “AGTAATAATCGGCATGCATGTCAGTGGTAGTATATA [TGCATGCA_site312]” is higher in “gcPBM binding intensity (ln)” value: 9.73 for the first, 9.94 for the second.

Going from “ATATAATAATAATATTGTACAATAAAAAATATATAT [XGTACX_site7350]” to “ATACAGATAGGATGCACACATAATTCAAATACAATA [CACACA_site4531]”, the “gcPBM binding intensity (ln)” value falls from 9.96 to 9.9.

Going from “AAATTTTATGTATAATGTACACATAAATTTTTCTTT [XGTACX_site7266]” to “GGAATATTAAAAAAATGTACAAAAAATAATATCCAT [XGTACX_site2596]”, the “gcPBM binding intensity (ln)” value rises from 9.58 to 9.74.

First: TATTAATATTTTTGTTGTACTTAAAAATGATGGTAG [XGTACX_site3501]
Second: AGTAAAAAAAAAAAAAAAAAAAAAAAAAAAAAAAAA [GTGCAC_negctrl_site147]
The “gcPBM binding intensity (ln)” value of the first is higher: 9.42 for the first, 9.06 for the second.

Going from “TATTATTTTAATTATTCACACATTATTATAAAAATT [CACACA_site5538]” to “CATATACACGAACACACACACATATAAATAAATATA [CACACA_site6379]”, the “gcPBM binding intensity (ln)” value rises from 9.52 to 10.6.

Compared with “ATATATACGTATGAATGTATATTTGTTTGAATTTTT [CACACA_negctrl_site524]”, “AATAATAACATACAGACACACACGTAAAAGCACGTG [CACACA_site253]” is higher in “gcPBM binding intensity (ln)” value: 9.61 for the first, 10.5 for the second.

Compared with “TTTATATATTAATATGCACACACAAGAAGTAATTAT [CACACA_site9045]”, “AATGGGTAAACATACACACACACATATATATATATA [CACACA_site1991]” is higher in “gcPBM binding intensity (ln)” value: 9.98 for the first, 10.5 for the second.

“TATAATGTTAAATAATGTACATATATTTTTTTTTTT [XGTACX_site4722]” and “TATATATATTAAAAAGTGCATTATTCATATTATATA [GTGCAC_site9400]” are the same in “gcPBM binding intensity (ln)” value: 9.54 for the first, 9.54 for the second.

Compared with “TTACAATTTAATATATGTACATATTTGTGATTTATC [XGTACX_site2911]”, “TTTATTAATAATTATACACACATATAAAATGAATAA [CACACA_site1359]” is lower in “gcPBM binding intensity (ln)” value: 9.69 for the first, 9.59 for the second.

Going from “AAAATATCTTGTTACTGTACAAATATAAATAAATAC [XGTACX_site3684]” to “ATTTGGCATAGACACACACACACACGCACGCACATA [CACACA_site6424]”, the “gcPBM binding intensity (ln)” value rises from 9.64 to 11.1.

Going from “TATGTTCATCATAGCACACATATATAAATTACAACA [CACACA_site3533]” to “CAAAAATAAACTATAGTACACACTTATTATTATGAA [CACACA_site2702]”, the “gcPBM binding intensity (ln)” value rises from 9.63 to 9.73.

Compared with “TTTTTATGTAGAATTTTTTTATTTTTTCAAAATGGA [CACACA_negctrl_site166]”, “ATTGTAATCATATGAAGTACTAATATATATTTTAAT [XGTACX_site8350]” is higher in “gcPBM binding intensity (ln)” value: 8.97 for the first, 9.61 for the second.

First: ATTTATAAAATTAATAGTACATATATTTATATATAT [XGTACX_site4173]
Second: TATTGCACAAAATAATTTTATTATACTTTATGTTAG [TGCATGCA_negctrl_site574]
The “gcPBM binding intensity (ln)” value of the first is higher: 9.62 for the first, 9.55 for the second.

First: TTTTAAATAAAATATTGTACATTAAAATTGTAATAT [XGTACX_site2128]
Second: AAGCAAACATATTAATGTACACACACCCACACACAA [XGTACX_site5806]
The “gcPBM binding intensity (ln)” value of the first is lower: 9.39 for the first, 11.1 for the second.

Going from “TAAGATAAATGATAAAGTACTTTTTTTTTTTAAATA [XGTACX_site2326]” to “ATTATAAATATGTATATACACACTTTTAATATTCAT [CACACA_site9367]”, the “gcPBM binding intensity (ln)” value rises from 9.28 to 9.83.

Going from “AATTTTAAAAATATAACACACATATATAAAATATAT [CACACA_site3610]” to “AATGAAGAAAAAAAAAGTACATTATTTTTAAAACTT [XGTACX_site563]”, the “gcPBM binding intensity (ln)” value falls from 9.68 to 9.66.

Compared with “AATTGTCAGAGAATATGTACTTAAGTATTTATTGTT [XGTACX_site1947]”, “ATAAAAAAATAAAACACACACATATATATTATATAT [CACACA_site2810]” is higher in “gcPBM binding intensity (ln)” value: 9.62 for the first, 10.6 for the second.

First: TAAATAAAAAAACACACACACATATATATATATATA [CACACA_site2269]
Second: AATAAGATATCTACAACACACATTTAATTTTTTTTT [CACACA_site1641]
The “gcPBM binding intensity (ln)” value of the first is higher: 11.4 for the first, 9.77 for the second.

Compared with “AATCATAAAGAACATATAATATATATATATATATAT [CACACA_negctrl_site316]”, “AATGCATTGATTGCATTCAAAAAAAAAAAAAAAAAA [XGTACX_negctrl_site597]” is lower in “gcPBM binding intensity (ln)” value: 9.73 for the first, 8.98 for the second.

Compared with “AATATATGCTTTCGTTATATTAAATTCAATTTAATG [GTGCAC_negctrl_site76]”, “AACAACTATTAATTTACACACATGTATTTATTTTAC [CACACA_site5683]” is higher in “gcPBM binding intensity (ln)” value: 9.5 for the first, 10.1 for the second.

First: TCTTATATATTTATTTGTACATATATATATATATAT [XGTACX_site7214]
Second: TGTATTACGAAAAAATGTACAGAAAAAGAAACAAAA [XGTACX_site2777]
The “gcPBM binding intensity (ln)” value of the first is higher: 9.91 for the first, 9.86 for the second.
